According to PubChem BioAssay AID588453 (National Center for Advancing Translational Sciences (NCATS), 2011):
About 4,000 (1%) of roughly 390,000 compounds were called active. The shares of active, inactive and inconclusive entries below differ from those in the screen. Calls follow the shape of the dose curve; as a rule, active = well fitted inhibition curve with a large enough effect; inconclusive = small, poorly fitted or top-dose-only effect; inactive = no such curve, though single readings can be large or run the other way. Potencies beside an inconclusive call are fits to weak or partial responses and may not hold up.

The molecules below were run against Thioredoxin reductase 1, cytoplasmic (Rattus norvegicus) (UniProt O89049) (assay: qHTS Assay for Inhibitors of Mammalian Selenoprotein Thioredoxin Reductase 1 (TrxR1): qHTS). Conditions: recombinant rTrxR1, NADPH fluorescence consumption, selenite substrate; series mostly up to 114 µM; activity change, negative = inhibition: at the top concentration.
Method in brief: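 Rat TrxR1 (90 nM in the dispensed reagent) was pre-reduced with 400 uM NADPH for 5 min at room temperature, then incubated with compound for 15 min. After 400 uM selenite was added, NADPH fluorescence (Ex 340/Em 450 nm) was followed for 8 min.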
% is scaled to controls: 0 for no effect and ±100 for the full control effect; potency is read from the fitted curve at half-maximal effect; tags tell the direction and shape of the fitted curve.
Also: nearly all actives have a fitted effect of over 65% in size.

UniProt O89049, sequence (O89049 whole entry, looked up): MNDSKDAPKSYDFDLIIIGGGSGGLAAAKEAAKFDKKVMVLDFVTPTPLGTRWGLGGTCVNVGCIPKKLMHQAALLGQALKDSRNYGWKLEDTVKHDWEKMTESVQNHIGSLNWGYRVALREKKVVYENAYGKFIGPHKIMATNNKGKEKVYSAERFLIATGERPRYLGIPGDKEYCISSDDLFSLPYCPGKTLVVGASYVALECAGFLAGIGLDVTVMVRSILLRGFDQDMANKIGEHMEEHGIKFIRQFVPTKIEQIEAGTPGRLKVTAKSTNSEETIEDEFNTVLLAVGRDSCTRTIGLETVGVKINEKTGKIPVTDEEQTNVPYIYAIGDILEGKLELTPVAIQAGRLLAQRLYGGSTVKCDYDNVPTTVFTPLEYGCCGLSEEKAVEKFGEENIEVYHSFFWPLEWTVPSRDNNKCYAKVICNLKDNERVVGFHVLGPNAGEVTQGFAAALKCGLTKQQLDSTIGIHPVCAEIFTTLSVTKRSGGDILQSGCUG

Structure (SMILES) | activity change, negative = inhibition | Potency
O=c1cc(CO)oc(C(Nc2ccccn2)c2ccccc2Cl)c1O (stereo not given) | inactive: -13.7% | –
O=C(O)COc1ccc(/C=N/NC(=O)/C(=C/C=C/c2ccccc2)NC(=O)c2ccccc2)cc1 | – | inconclusive: 44.7 µM [inhibitor, partial curve, poor fit]
Cc1ccc(-c2csc(=S)[nH]2)cc1 | – | inconclusive: 63.1 µM [inhibitor, single point]
O=C(c1cc2ccccc2oc1=O)N(Cc1cccc(Br)c1)C1CCS(=O)(=O)C1 (stereo not given) | – | inconclusive: 89.1 µM [inhibitor, partial curve, poor fit]
COc1ccc(-n2c(O)c(/C=N/NS(=O)(=O)c3cccc([N+](=O)[O-])c3)c3ccccc3c2=O)cc1OC | – | inconclusive: 70.8 µM [inhibitor, partial curve]
CCCNC(=O)COC(=O)c1ccccc1C(=O)c1ccc(Cl)c([N+](=O)[O-])c1 | – | active: 50.1 µM
Cc1cc(O)c(C(c2ccccc2)N2CCN(c3ccccc3F)CC2)c(=O)n1Cc1ccco1 (stereo not given) | – | inconclusive: 5.01 µM [inhibitor, full curve]
O=C(O)c1ccc2c(c1)C(=O)/C(=C\c1ccco1)C2=O | – | inconclusive: 10 µM [inhibitor, partial curve, poor fit]
O=C(NCc1ccccn1)c1ccc(CS(=O)(=O)Cc2ccc(Cl)cc2)o1 | – | inconclusive: 12.6 µM [inhibitor, full curve]
N#C/C(=C\c1ccccc1[N+](=O)[O-])c1nc(C2CC2)cs1 | inactive: -6.16% | –
N#Cc1c2c(c(-c3ccco3)[nH]c1=O)CCCC2 | – | inconclusive: 35.5 µM [inhibitor, partial curve, poor fit]
CCOC(=O)CN(C)C(=O)C1CC(CO[Si](C)(C)C(C)(C)C)=CN1C(=O)OC(C)(C)C (stereo not given) | – | inconclusive: 25.1 µM [inhibitor, partial curve]
COc1ccc2c(COC(=O)c3ccc(C)c(S(=O)(=O)N4CCOCC4)c3)cc(=O)oc2c1 | inactive: -15% | –
COc1c(C)cc(Br)cc1C(=O)Nc1ccccc1N1CCN(C(=O)c2ccccc2)CC1 | inactive: 12.5% [at 57.1 µM] | –
O=C(O)CCc1ccc(-c2ccccc2)o1 | – | inconclusive: 11.2 µM [inhibitor, partial curve, poor fit]
C#CCN1C(=O)S/C(=C\c2ccc(N3CCOCC3)cc2C)C1=O | inactive: 9.82% [at 57.1 µM] | –
Cc1[nH]c(=O)[nH]c(=O)c1/C=N/NC(=O)[C@H](C)N | inactive: 1.12% | –
Cc1ccc(NC(=S)N(CCCN2CCOCC2)Cc2ccco2)cc1 | – | inconclusive: 56.2 µM [inhibitor, partial curve]
O=C(OC(C(=O)NCC1CCCO1)c1ccc(F)cc1)c1cccs1 (stereo not given) | – | inconclusive: 28.2 µM [inhibitor, single point]
COc1ccc(NC(=S)Nc2ccccn2)cc1 | – | inconclusive: 50.1 µM [inhibitor, partial curve]
CCOC(=O)c1sc2ncn(CC(=O)Nc3cc(C)cc(C)c3)c(=O)c2c1C | inactive: 6.17% | –
Cc1cccc(-n2ncc3c(NCc4cccnc4)ncnc32)c1 | inactive: 17.8% | –
COc1ccc(C(=O)C[n+]2cc(Br)cc(Br)c2)cc1 | inactive: 22.2% | –

Structure (SMILES) | activity change, negative = inhibition | Potency
C#CCCC(=O)c1ccccc1/C=[N+](\[O-])c1ccccc1 | – | inconclusive: 89.1 µM [inhibitor, single point]
Cc1ccccc1C(=O)Nc1cccc(C(=O)OCc2cc(=O)n3c(C)csc3n2)c1 | inactive: 5.57% [at 57.1 µM] | –
CC(NC(=O)/C=C/c1ccco1)c1nc2ccccc2n1Cc1cccc(Cl)c1 (stereo not given) | – | active: 14.1 µM
Cc1cccc(-c2nc(CS(=O)CC(=O)NC3CCCC3)c(C)o2)c1 (stereo not given) | – | inconclusive: 14.1 µM [inhibitor, partial curve]
Cc1ccc2[nH]c(=O)c(CN(CCCN3CCOCC3)Cc3nnnn3C3CCCC3)cc2c1 | – | active: 20 µM
C=C(c1nc2ccccc2s1)C1Cc2cccc3c2N(CCC3)C1 (stereo not given) | inactive: 26.6% | –
CC1CN(Cc2cc(=O)oc3cc(O)ccc23)CC(C)O1 (stereo not given) | – | inconclusive: 79.4 µM [inhibitor, single point]
O=C(CC(n1cncn1)C(Cl)(Cl)Cl)c1ccc([N+](=O)[O-])cc1 (stereo not given) | – | active: 3.55 µM
COC(=O)c1ccccc1NC(=O)c1sc2nc(C)cc(C)c2c1NC(=O)c1ccccc1Cl | – | inconclusive: 79.4 µM [inhibitor, single point]
CC1=NN(Cc2ccccc2)C(=O)C1C(c1ccncc1)C(C#N)C#N (stereo not given) | – | inconclusive: 11.2 µM [inhibitor, full curve]
COc1cc(C2C(=O)N(C3CCCC3)CC(=O)N2Cc2ccco2)ccc1OC(C)C (stereo not given) | – | inconclusive: 14.1 µM [inhibitor, partial curve, poor fit]
Cc1ccc(S(=O)(=O)N2CCCCC2)cc1NC(=O)Cn1ncc(Cl)c(Cl)c1=O | – | active: 50.1 µM
CCOc1ccc(/C=N/NC(=S)NC2CC3CCC2C3)cc1 (stereo not given) | inactive: 3.21% [at 57.1 µM] | –
Cc1cccc(N=C2NC(=O)S/C2=C\c2ccco2)c1 | – | inconclusive: 56.2 µM [inhibitor, partial curve, poor fit]
COC(=O)c1ccc(NC(=S)Nc2ccccc2)cc1 | – | inconclusive: 17.8 µM [inhibitor, partial curve, poor fit]
COc1ccc(N2CCN(C(=O)CCc3ccc(S(=O)(=O)NCC(C)C)cc3)CC2)cc1 | inactive: 12.7% [at 57.1 µM] | –
Cc1cc([N+](=O)[O-])ccc1NC(c1nnc(-c2ccccc2)o1)c1ccccc1F (stereo not given) | inactive: 19.8% [at 57.1 µM] | –
CCOC(=O)c1cc2c(=O)n3ccccc3nc2n(Cc2ccco2)c1=NC(=O)c1cccc(F)c1 | – | inconclusive: 4.47 µM [inhibitor, partial curve, poor fit]
COc1ccc(C(=O)C2CCCN(C(=O)CCC3=NNC(=O)CC3)C2)c(C)c1 (stereo not given) | inactive: 14.6% | –
CCOc1cc(/C=C2/C(=O)NN(c3cccc(Cl)c3)C2=O)ccc1O | – | inconclusive: 56.2 µM [inhibitor, partial curve, poor fit]
Nc1c(C(=O)O)sc2nc(-c3ccccc3)cc(-c3ccc(F)cc3)c12 | – | inconclusive: 17.8 µM [inhibitor, partial curve]
CCc1cc(=S)n2c([nH]c3ccccc32)c1C#N | – | inconclusive: 20 µM [inhibitor, partial curve, poor fit]
